# According to PubChem BioAssay (NCATS):
# “And” between values parts separate entries of the source, which are not always exact repeats. Identical values can stand only once. Inconclusive results, whose numbers are uncertain, are shown with a selection of clear calls. For part of these data: Potencies of inconclusive entries are doubtful fits and often do not repeat. The source made the active and inactive calls. Calls follow the shape of the dose curve; as a rule, active = well fitted curve in the direction sought with a large enough effect; inconclusive = small, poorly fitted or top-dose-only effect, or another doubt; inactive = no such curve, though single readings can be large; an effect the other way counts as inactive or inconclusive.
# How the values were obtained:
# [1] = Viability qHTS for spleen associated tyrosine kinase inhibitor (SYKi) naive MV4-11 cells (AID 1963823); conditions: MV4-11 AML viability, CellTiter-Glo luminescence, 72 h; series mostly up to 45 µM; also: nearly all actives have a fitted effect of over 40% in size
# In short: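 CellTiter-Glo luminescence, 10 min room-temperature incubation, gave viability. Cells: naive MV4-11 (500/well), treated 72 hr at 37 C, 5% CO2.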
# [2] = Quantitative highthroughput screen to assess conditional lethalithy of NOMO1 cells grown in RPMI1640 with untreated serum (RPMI+s) (AID 1963876); conditions: NOMO1 AML cells in RPMI+serum, CellTiter-Glo viability, 48 h; viability: at 45.8 µM (top of the series); also: nearly all actives have a fitted effect of over 35% in size
# In short: (§1)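 Each medium arm—HPLM with 10% dialyzed FBS, or RPMI1640 with 5 mM glucose and 10% untreated or dialyzed FBS—was screened against an 11-point, 3-fold compound titration for 48 h at 37 °C, with CellTiter-Glo luminescence as endpoint.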
# [3] = Quantitative highthroughput screen to assess conditional lethalithy of NOMO1 cells grown in RPMI1640 with dialyzed fetal bovine serum (RPMI+ds) (AID 1963877); also: nearly all actives have a fitted effect of over 30% in size
# In short: as §1
# [4] = Quantitative highthroughput screen to assess conditional lethalithy of NOMO1 cells grown in Human Plasma-Like Medium with dialyzed fetal bovine serum (HPLM+ds) (AID 1963878); conditions: NOMO1 AML cells in HPLM+ds, CellTiter-Glo viability, 48 h; viability: at 45.8 µM (top of the series); also: nearly all actives have a fitted effect of over 35% in size
# In short: as §1
# [5] = Quantitative highthroughput screen to assess conditional lethalithy of P12 Ichikawa cells grown in Human Plasma-Like Medium with dialyzed fetal bovine serum (HPLM+ds) (AID 1963879); conditions: Potency: viability; also: nearly all actives have a fitted effect of over 35% in size
# In short: as §1
# [6] = Quantitative highthroughput screen to assess conditional lethalithy of P12 Ichikawa cells grown in RPMI1640 with dialyzed fetal bovine serum (RPMI+ds) (AID 1963880); conditions: Potency: P12-Ichikawa viability; also: nearly all actives have a fitted effect of over 35% in size
# In short: as §1
# [7] = Quantitative highthroughput screen to assess conditional lethalithy of P12 Ichikawa cells grown in RPMI1640 with untreated serum (RPMI+s) (AID 1963881); conditions: Potency: viability; also: nearly all actives have a fitted effect of over 35% in size
# In short: as §1
# [8] = Quantitative highthroughput screen to assess conditional lethalithy of SEM cells grown in Human Plasma-Like Medium with dialyzed fetal bovine serum (HPLM+ds) (AID 1963882); also: nearly all actives have a fitted effect of over 35% in size
# In short: as §1
# [9] = Quantitative highthroughput screen to assess conditional lethalithy of SEM cells grown in RPMI1640 with dialyzed fetal bovine serum (RPMI+ds) (AID 1963884); conditions: SEM B-ALL cells, RPMI+dialyzed FBS, CellTiter-Glo viability, 48 h; viability: at 45.8 µM (top of the series); also: nearly all actives have a fitted effect of over 35% in size
# In short: as §1
# [10] = Cellular viability qHTS for adrenocortical cancer (ACC) cell line SW-13 (AID 1963989); conditions: SW-13 ACC cells viability, CellTiter-Glo, 48 h; activity (max response): stronger effect = lower value; also: nearly all actives have a fitted effect of over 65% in size
# In short: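 Compound titrations (up to 46 uM final, in DMSO) were applied to SW-13 cells for 48 h at 37C/5% CO2. Reading used CellTiter-Glo after 20 min at room temperature; fitted curves yielded IC50 and efficacy.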
# [11] = Cellular viability qHTS for adrenocortical cancer (ACC) cell line NCI-H295R (AID 1963990); conditions: CellTiter-Glo ATP luminescence, 48 h; series mostly up to 46.1 µM; also: nearly all actives have a fitted effect of over 60% in size
# In short: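 Readout: CellTiter-Glo luminescence, 20 min RT. Exposure: 48 h, 37C/5% CO2. Cells: NCI-H295R, ITS-DMEM serum-free. Range: up to 46 uM. Analysis: 4PL fit, IC50 plus efficacy.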
# [12] = Quantitative highthroughput screen to assess conditional lethalithy of SEM cells grown in RPMI1640 with unreated serum (RPMI+s) (AID 1963883); conditions: SEM B-ALL cells, CellTiter-Glo viability, 48 h; viability: at 45.8 µM (top of the series); also: nearly all actives have a fitted effect of over 35% in size
# In short: as §1
# Potency is read from the fitted curve at half-maximal effect; tags tell the direction and shape of the fitted curve.
Structure (SMILES),Potency [1],Potency [2],Potency [3],Potency [4],Potency [5],Potency [6],Potency [7],Potency [8],Potency [9],Potency [10],Potency [11],Potency [12]
COCCOc1ccc2c(c1)ncn2-c1ccc2cccc(N3CCC(N)CC3)c2n1,"inconclusive: 9.2 nM [cytotoxic, full curve] and inconclusive: 8.3 nM [cytotoxic, full curve]",active: 18.7 µM,active: 18.7 µM,active: 14.8 µM,"inconclusive: 1.87 µM [cytotoxic, full curve]","inconclusive: 3.32 µM [cytotoxic, full curve]","inconclusive: 5.26 µM [cytotoxic, full curve]","inconclusive: 1.48 µM [cytotoxic, partial curve]",,,,
CC(C)(C)NC(=O)Nc1cccc(Nc2ncc(F)c(NC(C)(C)CO)n2)c1,active: 1.48 µM,"inconclusive: 8.33 µM [cytotoxic, single point]","inconclusive: 8.33 µM [cytotoxic, full curve, poor fit]",inactive,active: 8.33 µM,"inconclusive: 8.33 µM [cytotoxic, full curve]","inconclusive: 8.33 µM [cytotoxic, full curve]","inconclusive: 7.43 µM [cytotoxic, full curve]",active: 6.62 µM,"inconclusive: 14.1 µM [cytotoxic, partial curve, poor fit]","inconclusive: 2.82 µM [cytotoxic, single point]",
CCS(=O)(=O)Nc1ccc2[nH]c(O)c(C(=Nc3ccc(CN4CCCCC4)cc3)c3ccccc3)c2c1,"inconclusive: 0.0295 µM [cytotoxic, full curve]","inconclusive: 0.105 µM [cytotoxic, full curve]",active: 0.833 µM,active: 4.69 µM,"inconclusive: 0.0935 µM [cytotoxic, full curve]","inconclusive: 0.105 µM [cytotoxic, full curve]","inconclusive: 0.0935 µM [cytotoxic, full curve]",,,,,active: 0.0935 µM
